Laboratory results as given in article PMC12136788.
This is one part of the list.

B1: chr12:104022963:104022964:-_ENSMUSG00000041702_ENSMUST00000045652|mus_mus|FALSE|FALSE (ssRNA)
RNA: GGGAGUUCUACAGUCCGACGAUCAAAAUACAUCUUAGUGUGCAACCCAAUGCACAUGGAAACUGGUAGAUGAUAGGUAAAAUGCAAAAAGUAUGAAAAUACAGUCCUUUAAAUGUAGCAAUAAAGUAGUUUAACACACUGUUACAACAGAGGAUUGAGCAUCA
B2: chrX:35777509:35777510:-_ENSMUSG00000016534_ENSMUST00000061755|mus_mus|FALSE|FALSE (ssRNA)
RNA: GGGAGUUCUACAGUCCGACGAUCCUGUCCUUUUGUCACAUUAAAAGGUUGCACCUUUAGGUUAAAGGUGUUGAUCUGAAACGCUCUAGACACAGAAAGCACCUGCUCUUUGUUGCACAUAUAAGAACUUCCCAGAGGGGCAUCCAACAGAGGAUUGAGCAUCA
B3: chr15:38777322:38777323:+_ENSG00000171262_ENST00000397609|hu_mus|FALSE|FALSE (ssRNA)
RNA: GGGAGUUCUACAGUCCGACGAUCUCAACCUAUUUUUCAAAAAGGACAACUGACUAUGCACAUAUAUUAGACACUUCCUCUAUUUUGUAAAAUAGAAUUAACAAUACAGGGCAGAUCCACAGGUAUACAAAUGACAUGAGAGUCCAACAGAGGAUUGAGCAUCA
B4: chr3:57646030:57646031:-_ENSMUSG00000027805_ENSMUST00000066882|mus_mus|motif|central (ssRNA)
RNA: GGGAGUUCUACAGUCCGACGAUCUUAAAUCUGUACAUUAUCCACAAUGCCCAAACAAUAGAAGCAAUACUAGAAUGUCCCGGAGGUAGUGCCAUUCGAAAGGAAAUCCAUCUCACAAUAGCAACAGUUCAUUUUAACAAUAGUCAACAGAGGAUUGAGCAUCA
B5: chr3:8561242:8561243:+_ENSMUSG00000027500_ENSMUST00000029002|mus_mus|motif|central (ssRNA)
RNA: GGGAGUUCUACAGUCCGACGAUCAGCAACCAGCUCACAGUCUCCAAGUGGAAAAACGUUCAGUAGCAUUAUGUGCUUGUACGGCAGGCAAAAGCUUAAAAUGAACAUCAUCACCCAUGGCACCCACAGAUAAGCCACCCGACACAACAGAGGAUUGAGCAUCA
B6: chr1:244855233:244855234:+_ENSG00000121644_ENST00000302550|hu_mus|motif|central (ssRNA)
RNA: GGGAGUUCUACAGUCCGACGAUCCAUCAGAUGGUAGGCGUUGCCCUUAUACUCUUUCCCCAGUUCUUCUACAAUUUUCUCGGUAUCAUCUUCUAGAAAGUCCGUACUUCCUAGAACAACAGCUUCUUUAAAUUUAAAUGUUUCCAACAGAGGAUUGAGCAUCA
B7: chr9:31209820:31209821:+_ENSMUSG00000042185_ENSMUST00000086167|mus_mus|FALSE|FALSE (ssRNA)
RNA: GGGAGUUCUACAGUCCGACGAUCAUUUUCCUUACAGAAGGCCUGGUCUUUGGUUUCCAGCCACAGGUGGAAGAGAGCAGCUAAUUCCUUUUCAUUAUCUUGAGAUUGACCAAGCAAUUUCCACUGCUGGGUUUUCUCUUUGAACAACAGAGGAUUGAGCAUCA
B8: chr1:163117127:163117128:-_ENSG00000143248_ENST00000313961|hu_mus|hu_hu_hu_mus_False|88_98 (ssRNA)
RNA: GGGAGUUCUACAGUCCGACGAUCUGCUACAAAGGAUGGAGGAAAUAACUCACAGGAACUUUUGGAAGCCUGACCAGAUGACUACUUGAUUAGCUCCUUAUAAAAUUCAGAGCGCACAAAGCGGGGCAGAGAAUCCUUCUCCAUCAACAGAGGAUUGAGCAUCA
B9: chr13:104551264:104551265:-_ENSMUSG00000032621_ENSMUST00000074616|mus_hu|motif|central (ssRNA)
RNA: GGGAGUUCUACAGUCCGACGAUCUCCAAGUGUUGCAAUGUUGGGGUCUAGUGCUGCUGCUGGUAUAGCUCCCAAACUGCGGAGUGAAACACCAAGAGUAGUCAAAGGAUUUGGGGUCGGUAUUGGAAGCAAUCCUGCACCAGGCAACAGAGGAUUGAGCAUCA
B10: chr2:217002811:217002812:+_ENSG00000079246_ENST00000392132|hu_mus|motif|central (ssRNA)
RNA: GGGAGUUCUACAGUCCGACGAUCCAGCGAGGAAAACAUGUAUUGCCGCAAGUCUUCCAUGAAAGGCAGCUGCACAUAAACGGAACACUCAUAGGCGUCCUUAAUGUAAGGGAAGGCUACACCAACUUGAGGAUUAGAUCUUUUCAACAGAGGAUUGAGCAUCA
B11: 68156407_68156527_705_CDS_ENSG00000072736_ENST00000346183|human|control|control (ssRNA)
RNA: GGGAGUUCUACAGUCCGACGAUCGGAUCUAGGAGAGUGGCAAGGAGAUUGCCUGGGUGAUAAUGAGUGUCCAAGUCCAUACUGUUGAUGCCAAGUUUCUUCUCCAGGGCAGCCCCCUGGAGAGCCACCAGGAGAAGUCAGAGGCAACAGAGGAUUGAGCAUCA
B12: chr11:18503389:18503390:-_ENSG00000074319_ENST00000251968|hu_hu|motif|central (ssRNA)
RNA: GGGAGUUCUACAGUCCGACGAUCAUUUUCCAUUUUUUCCAGAGCAGAACUGAGUUCUUCAUCCUUCUUUUUCAAAAGUUCGGUGUUUUUAUCAACCUCGGCUACUUCUUGAUCUAAACGGGUAACCAUCUCUUCCAGUUUCUGCAACAGAGGAUUGAGCAUCA
B13: 110832895_110833015_3381_3pUTR_ENSG00000164211_ENST00000296632|human|control|control (ssRNA)
RNA: GGGAGUUCUACAGUCCGACGAUCCAACUGCCAUAUCAAAAGUUACUUAUCUUUGAAGGAAAAUAUUUGCUGGCAAUAAUUUUAUCUCAUUGACAACUGAUUUAUAUCUAAAGUUUAGAUGUCCUAUUUAUCAAGCAAUGAAGGCAACAGAGGAUUGAGCAUCA
B14: chr5:24309113:24309114:-_ENSMUSG00000028945_ENSMUST00000030787|mus_mus|motif|central (ssRNA)
RNA: GGGAGUUCUACAGUCCGACGAUCUUUUAUUUACAAGUAUACAUUUAACACAAUGAAAUAAACACUGAUAUAUUGAAGCCGGGUUAAUAGUAGUGUAACAUGUGUAUCAUUUUGAUGAUUACAUUAUUUUAAACAACAAACUACCAACAGAGGAUUGAGCAUCA
B15: chr2:168013125:168013126:-_ENSMUSG00000051149_ENSMUST00000088001|mus_mus|FALSE|FALSE (ssRNA)
RNA: GGGAGUUCUACAGUCCGACGAUCCUCCCAUGUAGUGUUUUUCAAAUAAAAGUCAUUAGGUUCAAACUGUUUAAAAUCUUCUAUAUGUUCUUUACAGUAUUCCAACCCAAUGUCACUAAGUAUUUUUUUCACAGUUUUCCGGGCCAACAGAGGAUUGAGCAUCA
B16: chr1:224585847:224585848:-_ENSG00000162923_ENST00000295024|hu_mus|motif|central (ssRNA)
RNA: GGGAGUUCUACAGUCCGACGAUCUCCAAAACACGAGUGGAUUGUAUAAAACCCUUGGGUAACACCUUGAUAUUUCCUUACGGAAACUCUGUCUUGCAAGUCCCAUAAAUGAACUCCCUGAGUUGCUACAUUUAACAAAGCUAACAACAGAGGAUUGAGCAUCA
B17: 51937858_51937978_3740_3pUTR_ENSMUSG00000020349_ENSMUST00000020608|mouse|control|control (ssRNA)
RNA: GGGAGUUCUACAGUCCGACGAUCUUAUUUUUUGUUUGAGUGGUUUGCCUGCAGGCAUGUACACCACAUGUGUGUCUGAUGCCGUGGAGACCAGAAGAGAGUAUCAGGGCCUCUGGAGUCGAAGUUAUAGGCAGCUGGGGGCUACAACAGAGGAUUGAGCAUCA
B18: 111883933_111885604_1727_CDS_ENSG00000148700_ENST00000277900|human|control|control (ssRNA)
RNA: GGGAGUUCUACAGUCCGACGAUCUGAGUCUUCUGCUUUCAUCCACGUGAUUUUGGUUCGGGGACUGGUUUCUCCGUUCCGAGACUCCUCAGGCACAUUCACUUUCAUGUAAGUAUUUGGUGAGUUCAGCCAUCUUGUUUUUUCCAACAGAGGAUUGAGCAUCA
B19: chr4:40912178:40912179:+_ENSMUSG00000028419_ENSMUST00000030128|mus_mus|motif|central (ssRNA)
RNA: GGGAGUUCUACAGUCCGACGAUCACAGUUCAUUCCAACAGUAGAUCGUGUAAUGACUUGCUCACAUGACACAACAAAAUCGGUCAAAAGAGGCCAUGACUUAAACCCAUCUACAAUACCACAACAGACAAGGGUUCUGAAGCACAACAGAGGAUUGAGCAUCA
B20: chr7:135612270:135612271:-_ENSG00000105887_ENST00000393085|hu_mus|hu_hu_hu_mus_False|18_98 (ssRNA)
RNA: GGGAGUUCUACAGUCCGACGAUCGUUUUUUUCUGAGUAAGUAUUACGUACUUCAGUGGAAAACAAAACUUAACCUUUUAUUAAUGCGUGUUGUACCAAAAGCAGACAUUUUAGCUUGCUUCCUUUAAAAAUAUUAACAUUAAGCAACAGAGGAUUGAGCAUCA
B21: chr10:116622694:116622695:+_ENSG00000151553_ENST00000369248|hu_hu|FALSE|FALSE (ssRNA)
RNA: GGGAGUUCUACAGUCCGACGAUCAAUAAACCAGAAAAGCUAACACAACAAAAUGAGCAGAUAGGUGUAAAACAAGCCUCUAUGCACAUGCCACACAAUGCGUAUAUGCAAACAUGCUACAUAAAAUAACUUCCUAGAGGGGGUCAACAGAGGAUUGAGCAUCA
B22: 29370372_29377329_3663_CDS_ENSMUSG00000032740_ENSMUST00000040182|mouse|control|control (ssRNA)
RNA: GGGAGUUCUACAGUCCGACGAUCUUGUCUCUGUUUGAGAGCUUCAUAAUUUUUUUUCACUGUUUUAAGUUCGUGGCGCAAUUGCUGAUUGUAAUUUGUAGAUUCUUCUAACCGAGCUUCUAAAGCAGCAAUUUUUUCUUCUUUCAACAGAGGAUUGAGCAUCA

target: T1, UNK ZnF1-3 (human, UniProt Q9C0B0 31-174); assay: nsRBNS (natural sequence RNA bind-n-seq); RBNS binding buffer (assumed for nsRBNS): 25 mM Tris pH 7.5, 150 mM KCl, 3 mM MgCl2, 0.01% Triton X-100, 500 ug/ml BSA, 20 U/ml SUPERase-In, 4 C; UNK is unkempt and MSI1 is Musashi-1; names of the RNAs are library labels; protein concentration not given here; high values mean tight binding
T1 sequence: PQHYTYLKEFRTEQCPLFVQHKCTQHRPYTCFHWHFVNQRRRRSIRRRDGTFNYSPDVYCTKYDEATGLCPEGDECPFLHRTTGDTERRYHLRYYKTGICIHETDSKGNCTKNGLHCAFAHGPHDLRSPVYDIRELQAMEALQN

Binder | binding signal
B1 | 0.706 enrichment R
B2 | 1.25 enrichment R
B3 | 0.788 enrichment R
B4 | 1.15 enrichment R
B5 | 1.46 enrichment R
B6 | 1.2 enrichment R
B7 | 0.67 enrichment R
B8 | 2.05 enrichment R
B9 | 1.29 enrichment R
B10 | 0.976 enrichment R
B11 | 0.69 enrichment R
B12 | 0.412 enrichment R
B13 | 1.03 enrichment R
B14 | 0.68 enrichment R
B15 | 0.621 enrichment R
B16 | 0.931 enrichment R
B17 | 1.5 enrichment R
B18 | 0.35 enrichment R
B19 | 1.4 enrichment R
B20 | 0.489 enrichment R
B21 | 1.1 enrichment R
B22 | 0.378 enrichment R
